Measurements taken from paper PMC6348740.
No constants are given. Whether binding was seen depends on the method and setting. Binding seen in cells or lysates may run through a third protein. Some entries that bind do so weakly or less than the wild type. Where a sequence is shown, tags or fusion partners need not be part of it.

Amino acid sequences for entries named in this document (tags omitted). A change or cut given only in a name is not applied to a line headed by its entry. Chains listed by the source or under a name are the forms on record and can include a tag or linker.
UniProt P04150: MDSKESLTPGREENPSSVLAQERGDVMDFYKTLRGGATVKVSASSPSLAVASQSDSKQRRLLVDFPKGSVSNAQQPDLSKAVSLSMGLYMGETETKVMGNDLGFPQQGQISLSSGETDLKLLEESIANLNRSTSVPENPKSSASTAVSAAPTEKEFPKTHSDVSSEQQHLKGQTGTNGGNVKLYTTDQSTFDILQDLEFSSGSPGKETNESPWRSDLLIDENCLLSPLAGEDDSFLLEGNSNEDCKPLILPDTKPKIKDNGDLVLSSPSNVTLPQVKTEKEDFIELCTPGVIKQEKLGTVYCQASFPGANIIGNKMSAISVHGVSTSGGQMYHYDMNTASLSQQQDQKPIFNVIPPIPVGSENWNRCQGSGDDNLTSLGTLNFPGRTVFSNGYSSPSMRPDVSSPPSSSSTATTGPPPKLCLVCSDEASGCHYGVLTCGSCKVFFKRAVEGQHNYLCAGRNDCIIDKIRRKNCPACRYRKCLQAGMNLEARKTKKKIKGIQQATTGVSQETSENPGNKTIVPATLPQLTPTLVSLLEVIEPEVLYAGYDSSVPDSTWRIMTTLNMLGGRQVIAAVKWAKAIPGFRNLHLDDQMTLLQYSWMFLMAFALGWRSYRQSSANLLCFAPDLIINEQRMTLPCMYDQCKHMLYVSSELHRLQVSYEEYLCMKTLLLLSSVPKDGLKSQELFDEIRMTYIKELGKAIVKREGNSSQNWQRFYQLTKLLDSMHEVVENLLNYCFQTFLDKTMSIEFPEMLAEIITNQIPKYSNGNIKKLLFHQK
EYFP-26/76 Y30E (P04150, form named): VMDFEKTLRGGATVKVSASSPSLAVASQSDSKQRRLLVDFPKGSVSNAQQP
FLAG-GR ΔNTD (1-25/394-777) (P04150, form named): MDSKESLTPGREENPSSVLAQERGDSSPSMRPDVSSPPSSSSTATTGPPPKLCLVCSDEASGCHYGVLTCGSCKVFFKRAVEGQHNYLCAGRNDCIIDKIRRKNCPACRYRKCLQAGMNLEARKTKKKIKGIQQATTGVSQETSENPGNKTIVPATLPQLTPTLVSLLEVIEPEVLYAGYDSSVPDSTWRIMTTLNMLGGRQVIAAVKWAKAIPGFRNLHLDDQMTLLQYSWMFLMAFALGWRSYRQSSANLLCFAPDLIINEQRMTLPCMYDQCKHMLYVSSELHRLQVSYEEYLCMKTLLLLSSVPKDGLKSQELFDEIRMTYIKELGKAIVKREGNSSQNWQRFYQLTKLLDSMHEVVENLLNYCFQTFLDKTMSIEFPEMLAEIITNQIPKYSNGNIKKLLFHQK

These substances were tested against T1, CCRP-V5 (cytoplasmic constitutive active/androstane receptor retention protein, pcDNA3.1-mCCRP-V5) (mouse (mCCRP)) (UniProt Q9QYI3) (assay: co-IP; anti-V5 antibody with Dynabeads protein G precipitates CCRP-V5 from whole lysates of co-transfected COS-1 cells; IP buffer 20 mM Tris-HCl pH 7.5, 150 mM NaCl, 1 mM EDTA, 1% Triton-X; 2 to 4 hours at 4°C; Western blot with anti-FLAG or anti-GFP; for EYFP-26/76 in the absence or presence of co-expressed FLAG-GRΔ26-76).
T1 sequence: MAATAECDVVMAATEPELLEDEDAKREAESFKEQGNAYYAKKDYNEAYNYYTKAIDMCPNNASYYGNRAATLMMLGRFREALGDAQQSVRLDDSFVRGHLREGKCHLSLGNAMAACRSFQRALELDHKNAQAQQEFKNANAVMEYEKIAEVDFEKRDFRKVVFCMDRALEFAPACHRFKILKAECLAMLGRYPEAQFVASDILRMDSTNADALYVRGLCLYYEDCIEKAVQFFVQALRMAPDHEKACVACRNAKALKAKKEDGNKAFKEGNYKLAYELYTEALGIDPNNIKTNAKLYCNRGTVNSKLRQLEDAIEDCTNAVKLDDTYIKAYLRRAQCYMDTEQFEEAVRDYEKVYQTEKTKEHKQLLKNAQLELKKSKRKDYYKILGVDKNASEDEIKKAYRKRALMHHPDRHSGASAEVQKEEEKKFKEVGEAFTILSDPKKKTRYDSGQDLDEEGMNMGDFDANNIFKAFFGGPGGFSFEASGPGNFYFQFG

binding	Substance
binds	EYFP-26/76 WT (EYFP-c1-hGRα-26-76) (from UniProt P04150 26-76) (domain or fragment)
no binding	EYFP-26/76 Y30E (from UniProt P04150 26-76) (domain or fragment)
binds	FLAG-GR LBD (528-777) (from UniProt P04150 528-777) (domain or fragment)
binds	FLAG-GR Y30E (from UniProt P04150 1-777)
binds	FLAG-GR Y30F (from UniProt P04150 1-777)
binds	FLAG-GR full length (FLAG-6c-CMV-hGRα, 1-777) (from UniProt P04150 1-777)
no binding	FLAG-GR ΔLBD (1-527) (from UniProt P04150 1-527) (domain or fragment)
binds	FLAG-GR ΔNTD (1-25/394-777) (from UniProt P04150 1-777) (domain or fragment)
